# Screen size: about 44,000 compounds; about 340 (0.77%) were called active. Roughly 5% stayed inconclusive and do not appear here. Calls follow the shape of the dose curve; as a rule, active = well fitted inhibition curve with a large enough effect; inconclusive = small, poorly fitted or top-dose-only effect; inactive = flat fitted curve, though single readings scatter. This is one part of the list.
# Assay: Acumen qHTS Assay for Inhibitors of the mTORC1 Signaling Pathway in MEF (Tsc2-/-, p53-/-) Cells: Sytravon;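 also: plate controls were DMSO for no effect and rapamycin for full effect; nearly all actives have a fitted effect of over 50% in size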
# Conditions: phospho-rpS6 immunofluorescence/PI, 24 h; series mostly up to 38.3 µM; activity change, negative = inhibition: at the top concentration
# Outline: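 Readout is phospho-S6 Alexa 488 signal normalized to PI per well, reported as % active cells with thresholds set from rapamycin (7.5 nM) and DMSO controls. Cells: Tsc2-/-, p53-/- MEFs, 24 hrs compound at 37 C; PI cell number serves as viability.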
row,Compound,"activity change, negative = inhibition"
1,COC(=O)CSc1ccc2nnc(CCNS(=O)(=O)c3ccc(C)cc3)n2n1,inactive: -0.463%
2,CCOC(=O)C1=C(CN2CCN(c3ccccc3F)CC2)NC(=O)NC1c1ccc(OC)cc1 (centres undefined),inactive: 2.92%
3,CCc1cccc(C)c1Nc1c(-c2cccc(O)c2)nc2cnccn12,inactive: 1.65%
4,CCOc1ccccc1NC(=O)Cn1nc2c3cc(F)ccc3n(Cc3cccc(C)c3)cc-2c1=O,inactive: -1.4%
5,COc1cccc(NC(=O)CCc2nc(-c3cc(OC)c(OC)c(OC)c3)no2)c1,inactive: 0.0842%
6,COc1ccc(CCNC(=O)c2cc(-c3ccc(Cl)cc3)on2)cc1OC,inactive: -1.02%
7,Cc1ccc(C)c(NC(=O)C(=O)NCCc2csc(-c3cccc(F)c3)n2)c1,inactive: 0.932%
8,Cn1c(=O)cc(SCC(=O)Nc2cccc(C#N)c2)c2ccc(Cl)cc21,inactive: -1.63%
9,CCOC(=O)c1ccc(NC(=O)c2cc3c(=O)n(C)c4ccccc4c3n2C)cc1,inactive: 4.28%
10,COc1cc2c(C(=O)N3CCN(c4ccc(C)cc4)C(C)C3)cn(CC(C)C)c(=O)c2cc1OC (centres undefined),inactive: 6.79%
11,Cc1nc2ccccn2c(=O)c1NC(=O)c1ccccc1Cl,inactive: -4.78%
12,COc1ccc(N2CCN(C(=O)Cc3noc4ccc(C)cc34)CC2)cc1,inactive: -0.818%
13,CCc1ccc(NC(=O)Cn2ccn(-c3cccc(Cl)c3)c(=O)c2=O)cc1,inactive: 4.6%
14,COc1ccc(C(=O)N2CCC(c3ccncc3)CC2)cc1OC,inactive: -9%
15,Cc1ccc(CN2CCc3nc(N4CCN(C)CC4)ncc3C2)cc1,inactive: 0%
16,Cc1nc2sccn2c(=O)c1S(=O)(=O)NCc1ccccc1,inactive: -7%
17,Cc1ccc(C)c(N2CCN(C(=O)c3ccc4c(c3)c(C)c(C)n4C)CC2)c1,inactive: -6.85%
18,COC(=O)c1ccc(OC)c(CN2CCCN(Cc3ccc(C)cc3)S2(=O)=O)c1,inactive: -3.61%
19,COc1ccc(Cl)cc1C(=O)NCC(c1ccc(N(C)C)cc1)N1CCOCC1 (centres undefined),inactive: 19.6%
20,Cc1cccc(C)c1OCC(=O)N(Cc1ccc(Cl)cc1)CC1CCCO1 (centres undefined),inactive: 0.556%
21,CC(C)c1nn2c(=O)cc(COC(=O)c3ccccc3NC(=O)c3cccs3)nc2s1,inactive: 3.79%
22,Cn1c(=O)c2c(nc(NCCc3ccccc3)n2Cc2ccc(Cl)c(Cl)c2)n(C)c1=O,inactive: -10%

row,Compound,"activity change, negative = inhibition"
1,CC1CCCN(c2csc3ccccc3c2=O)C1 (centres undefined),inactive: -7.12%
2,COc1ccc(S(=O)(=O)NCCc2cn3ccsc3n2)cc1OC,inactive: -12.8%
3,CCOc1ccc(N(Cc2cc3cc(C)ccc3[nH]c2=O)C(=O)c2cccc(Cl)c2)cc1,inactive: -0.638%
4,CCOC(=O)C1CCN(CCC(=O)Nc2ccccc2Cl)CC1,inactive: -0.184%
5,Cc1ccc(C)c(CN2CCC(CNC(=O)Cn3ncc4c([nH]c5ccccc54)c3=O)CC2)c1,inactive: -6.83%
6,O=C(NCCCN1CCOCC1)c1ccc2c(c1)N(Cc1ccccc1)C(=O)c1ccccc1S2,inactive: 6.98%
7,CCOc1ccc(NC(=O)NC(C)c2c(-n3cccc3)sc(C)c2C)cc1 (centres undefined),inactive: -1.41%
8,O=C(Cn1nc(N2CCN(c3ccccc3)CC2)ccc1=O)NCc1cccc(Cl)c1,inactive: -5.91%
9,Cc1cccc(OCCCCn2nnc3sc4c(c3c2=O)CCC(C)C4)c1 (centres undefined),inactive: -3.15%
10,CCOc1ccccc1CNC(=O)CN1C(=O)CCCc2ccccc21,inactive: -8.29%
11,CCOC(=O)CSc1nc2sc3c(c2c(=O)n1Cc1ccccc1)CC(C)CC3 (centres undefined),inactive: 7.91%
12,Cc1ccc(-n2ncc3c(NCCc4ccccc4)ncnc32)cc1C,inactive: -27.9%
13,O=C(COc1ccccc1)Nc1ccc(C(=O)OCc2cc(=O)n3nc(C4CC4)sc3n2)cc1,inactive: 3.65%
14,Cc1nc2nc(SCC(=O)NCc3ccccc3)nn2c(C)c1Cc1ccccc1Cl,inactive: -23.9%
15,CCN(CC)CCNC(=O)C1CCN(S(=O)(=O)c2c(C)noc2/C=C/c2ccccc2F)CC1,inactive: 9.85%
16,Cc1ccc(OCCSc2nc3ccc(NC(=O)COc4ccc(F)cc4)cc3s2)cc1,inactive: -7.24%
17,O=C(Cc1cccs1)NC1CC(=O)N(c2ccccc2)C1 (centres undefined),inactive: -3.87%
18,CCc1cccc(C)c1NC(=O)CN1CCCN(Cc2ccc(C)cc2)S1(=O)=O,inactive: -16.5%
19,COc1ccc(-c2c(C)nn3c(C(F)(F)F)cc(-c4ccc(Br)cc4)nc23)cc1,inactive: -1.99%
20,Cc1cc(C)n2c(Nc3c(C)cccc3C)c(-c3ccsc3)nc2n1,inactive: 4.41%
21,O=C(CN1CCCN(Cc2ccccc2Cl)S1(=O)=O)Nc1ccc2c(c1)OCCO2,inactive: 0%
22,CCOC(=O)c1cc(-c2ccc(F)cc2)n(CC(=O)NC2CCCCC2)c1C,inactive: -1%

row,Compound,"activity change, negative = inhibition"
1,CCOc1ccc(-c2ccc(NS(=O)(=O)c3cc(C)c(C)cc3C)cc2)nn1,inactive: -4.21%
2,Cc1ccccc1CN1CCc2nc(Nc3ccc4c(c3)OCCO4)ncc2C1,inactive: 0%
3,CCOc1ccc(CCNC(=O)c2ccc(CS(=O)(=O)Cc3ccccc3Cl)o2)cc1OCC,inactive: 4.71%
4,CCN(C(=O)COc1cc(=O)n(C)c2ccccc12)c1cccc(C(F)(F)F)c1,inactive: 8.03%
5,CCOc1ccc(C(=O)Nc2ccc(-c3nc4cc(CC)ccc4o3)cc2)cc1,inactive: 2.15%
6,CC(NC(=O)CCn1c(=O)c2cccn2c2ccc(F)cc21)c1ccccc1 (centres undefined),inactive: -20.7%
7,O=C(c1cc2c(=O)[nH]c3ccccc3c2s1)N1CCN(c2ccc(F)cc2)CC1,inactive: -7.18%
8,COc1ccccc1NC(=O)Cn1c(=O)n(Cc2ccccc2)c(=O)c2ccccc21,inactive: -10.7%
9,COc1ccc(NC(=O)C(=O)NCCc2csc(-c3ccc(Cl)cc3)n2)cc1,inactive: -2.45%
10,COc1cccc(NC(=O)c2oc3ccccc3c2NC(=O)C23CC4CC(CC(C4)C2)C3)c1,inactive: 0.0996%
11,COc1ccc(CN2COc3ccc4c(C)cc(=O)oc4c3C2)cc1,inactive: -6.14%
12,COc1cccc2c1Oc1nc(-c3ccccc3)nc(SCC(=O)N3CCCCC3)c1C2,inactive: -0.96%
13,O=C(CCn1c(=O)c2cccn2c2ccc(F)cc21)NCCc1ccccc1Cl,inactive: -0.549%
14,COC(=O)c1ccc(NC(=O)Nc2nnc(N(C)C3CCCCC3)s2)cc1,inactive: 1.97%
15,CCCOc1ccc(Nc2nc(SC)ncc2C(=O)OCC)cc1,inactive: -10.1%
16,Cc1coc2c(C)c3oc(=O)c(CC(=O)N4CCCCC4)c(C)c3cc12,inactive: -1.76%
17,Cc1cc(C)cc(-n2c(SCC(=O)Nc3nnc(C)s3)nc3c([nH]c4ccccc43)c2=O)c1,inactive: 0.4%
18,COC(=O)c1ccc(NC(=O)Cc2coc3cc(C)ccc23)cc1,inactive: -6.24%
19,COc1ccc(-c2nc3nc(C)cc(Nc4ccc(C(C)=O)cc4)n3n2)cc1,inactive: -2.43%
20,COc1ccc(Cn2ccnc2SCC(=O)NCc2ccccc2)cc1,inactive: -8.22%
